Experimental data published in PubChem BioAssay AID504339 (National Center for Advancing Translational Sciences (NCATS), 2011).
In all, about 390,000 compounds went through this assay and about 17,000 (4.4%) were called active. This list was built around the results that the source calls inconclusive (neither active nor inactive); the mix of calls is not that of the screen. Calls come from the whole dose curve; as a rule, active = well fitted inhibition curve with a large enough effect; inconclusive = small, poorly fitted or top-dose-only effect; inactive = no such curve, though single readings can be large or run the other way. A potency beside an inconclusive call is a rough fit, not a confirmed value.

Target: Lysine-specific demethylase 4A (Homo sapiens) (UniProt O75164)
Experiment: qHTS Assay for Inhibitors of JMJD2A-Tudor Domain; note: nearly all actives have a fitted effect of over 50% in size
Conditions: AlphaScreen JMJD2A-Tudor / H3K4me3 peptide binding; activity change, negative = inhibition: at 114 µM (top of the series)
% is set by controls: 0 for no effect and ±100 for the full control effect; potency is the fitted concentration of half-maximal effect; tags give direction and shape of the fitted curve.

Chain of UniProt O75164 (O75164 whole entry, looked up, the tested form may be a part): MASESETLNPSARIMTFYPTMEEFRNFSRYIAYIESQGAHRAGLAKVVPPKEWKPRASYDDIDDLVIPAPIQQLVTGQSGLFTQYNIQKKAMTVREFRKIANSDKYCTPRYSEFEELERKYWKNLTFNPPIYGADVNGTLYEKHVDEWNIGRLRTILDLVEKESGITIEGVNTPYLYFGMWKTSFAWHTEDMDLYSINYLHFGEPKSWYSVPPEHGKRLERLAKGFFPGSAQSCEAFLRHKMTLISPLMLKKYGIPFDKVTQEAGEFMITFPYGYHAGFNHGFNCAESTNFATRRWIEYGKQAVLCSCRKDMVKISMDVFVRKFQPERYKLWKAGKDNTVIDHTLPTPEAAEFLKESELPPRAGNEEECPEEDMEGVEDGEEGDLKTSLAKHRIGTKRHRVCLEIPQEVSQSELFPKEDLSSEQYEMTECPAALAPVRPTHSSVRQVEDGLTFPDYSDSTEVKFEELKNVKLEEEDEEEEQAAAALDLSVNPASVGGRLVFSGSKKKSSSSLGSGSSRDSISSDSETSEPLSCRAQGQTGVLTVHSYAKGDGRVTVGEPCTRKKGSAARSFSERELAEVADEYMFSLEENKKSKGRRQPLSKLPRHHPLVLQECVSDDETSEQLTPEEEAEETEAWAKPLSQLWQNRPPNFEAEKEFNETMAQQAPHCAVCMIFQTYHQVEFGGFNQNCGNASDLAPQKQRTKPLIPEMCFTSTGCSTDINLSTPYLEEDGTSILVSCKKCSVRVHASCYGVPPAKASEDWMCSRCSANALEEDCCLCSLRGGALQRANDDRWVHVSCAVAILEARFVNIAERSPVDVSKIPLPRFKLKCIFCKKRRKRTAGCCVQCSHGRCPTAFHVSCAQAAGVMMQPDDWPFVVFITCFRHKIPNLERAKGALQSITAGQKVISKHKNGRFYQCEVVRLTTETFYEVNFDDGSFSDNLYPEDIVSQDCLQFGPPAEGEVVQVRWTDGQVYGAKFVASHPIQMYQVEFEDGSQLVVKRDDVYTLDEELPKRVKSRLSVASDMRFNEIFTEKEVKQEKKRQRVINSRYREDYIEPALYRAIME

Compound | Potency | activity change, negative = inhibition
CSc1ccc(-c2nc3cnccn3c2Nc2ccc3c(c2)OCO3)cc1 | inconclusive: 35.5 µM [inhibitor, single point] | –
C/C(=N\Nc1ccc([N+](=O)[O-])cc1)c1ccc(O)cc1 | inconclusive: 79.4 µM [inhibitor, partial curve] | –
COC(=O)c1c(-c2cccs2)csc1NC(=O)c1cc(OC)c(OC)c(OC)c1 | active: 89.1 µM | –
O=c1c2ccccc2sn1-c1cc(S(=O)(=O)N2CCOCC2)ccc1N1CCCCC1 | active: 12.6 µM | –
CCN(CC)C(=O)[C@H]1C[C@H](CC(=O)NCC23CC4CC(CC(C4)C2)C3)C(=O)N2CCc3c([nH]c4ccc(Cl)cc34)[C@]12C | inconclusive: 31.6 µM [inhibitor, full curve] | –
CC1(C)Cc2c(sc(NC(=O)C(=O)N3CCCC3)c2C(N)=O)CO1 | – | inactive: -33.6%
COc1ccccc1N1CCN(C(=O)c2sc3nc(C)nc(N4CCN(c5ccccn5)CC4)c3c2C)CC1 | inconclusive: 31.6 µM [inhibitor, partial curve] | –
Cc1c(P(=S)(c2ccccc2)c2ccccc2)c2ccccc2n1C(=O)NCc1ccccc1 | – | inactive: -18.4%
C(=N\N1CCN(c2ccccn2)CC1)/c1ccccn1 | – | inactive: -20.8%
Cc1ccc(-n2c(Cc3noc4ccccc34)n[nH]c2=S)cc1 | inconclusive: 22.4 µM [inhibitor, partial curve] | –
O=C(Nc1ccccc1N1CCOCC1)c1cc(-c2ccco2)nc2ccccc12 | inconclusive: 44.7 µM [inhibitor, partial curve] | –
CCOc1cccc(-c2nn(-c3ccccc3)cc2/C=C(/C#N)C(=O)NCCCn2ccnc2)c1 | inconclusive: 17.8 µM [inhibitor, full curve] | –
CN1/C(=C/c2cc[n+](C)c3ccccc23)C=Cc2ccccc21 | active: 28.2 µM | –
COc1ccccc1NC(=O)c1cc2c(CO)cnc(C)c2oc1=Nc1ccc(OC)c(OC)c1 | inconclusive: 10 µM [inhibitor, partial curve] | –
O=C(CSc1nnc(NC(=O)c2ccccc2F)s1)NCc1ccco1 | – | inactive: -20.1%
CCCOc1ccc(C2=NC(c3ccc(F)cc3)=Nc3ccc(OC)cc3N2)cc1 | inconclusive: 7.94 µM [inhibitor, full curve, poor fit] | –
COc1ccc(C(=O)n2cnc(N)n2)cc1 | – | inactive: -14.2% [at 57.1 µM]
CCN(c1ccc(NC(=O)COC(=O)c2cc3ccccc3oc2=O)cc1)C(C)C | active: 28.2 µM | –
Cc1ccccc1C(=O)Oc1ccc(Br)cc1C(=S)N1CCCC1 | – | inactive: -8.27%
CCCn1c(SCC(=O)N2CCCCC2)nnc1C(C)C | active: 25.1 µM | –
CCc1cc(-c2n[nH]c(C)c2-c2nc3ccccc3n2C)c(O)c(CN2CCN(C)CC2)c1O | inconclusive: 56.2 µM [inhibitor, partial curve] | –
Cc1ccc(C(=O)Nc2ccc(C(=O)OCc3cc(=O)n4c5c(sc4n3)CCCC5)cc2)cc1 | – | inactive: 5.63%
COc1ccc(NC(=O)CN2CCC(NC(=O)C3CCCCC3)CC2)cc1 | – | inactive: -6.35%
Cc1ccc(NC(=O)CN(C)C(=O)Cc2ccccc2F)cc1 | – | inactive: -1.4%

Compound | Potency | activity change, negative = inhibition
COc1ccc(CNC(=O)CSc2ccsc2[N+](=O)[O-])cc1 | inconclusive: 56.2 µM [inhibitor, partial curve] | –
CCCCC(=O)NNC(=S)NC(=O)C(c1ccccc1)c1ccccc1 | inconclusive: 12.6 µM [inhibitor, full curve, poor fit] | –
CSc1nc(Cl)cc(N(CCO)CCO)n1 | – | inactive: -14.4% [at 11.4 µM]
COCCNCCCCOc1c(Cl)cc(C)cc1Br | active: 3.16 µM | –
O=C(N/N=C/c1ccc(O)cc1)c1[nH]c2ccc(Br)cc2c1-c1ccccc1 | – | inactive: -24.1%
C=CCNC(=S)NNc1nc2c(c(=O)[nH]1)C1(CCCC1)Cc1ccccc1-2 | inconclusive: 50.1 µM [inhibitor, partial curve] | –
COC(=O)[C@]1(Cc2ccccc2)N[C@H](c2ccc(-c3ccc(F)cc3)cc2)[C@@H]2C(=O)N(C)C(=O)[C@@H]21 | inconclusive: 79.4 µM [inhibitor, partial curve] | –
CCc1nccn1CCC(=O)NC1CCCc2c1cnn2-c1ccc(F)cc1F (stereo unspecified) | – | inactive: -19.6%
COCc1cc(C)nc(OCC(=O)N/N=C/c2cc(C)n(-c3c(C)cccc3C)c2C)c1C#N | inconclusive: 70.8 µM [inhibitor, partial curve] | –
COc1ccc(C(=NNc2ccccc2C(=O)O)c2ccc(OC)cc2)cc1 | inconclusive: 44.7 µM [inhibitor, partial curve] | –
CCOC(=O)c1ccc(NC(=O)CSc2nccn2Cc2ccc(OC)cc2)cc1 | inconclusive: 56.2 µM [inhibitor, partial curve] | –
O=C(CSc1ncc2c(n1)-c1cc(Cl)ccc1N(Cc1ccccc1F)S2(=O)=O)Nc1cccc(C(F)(F)F)c1 | – | inactive: 2.27%
Cc1[nH]c(=S)c(C#N)c(C)c1CCC#N | active: 20 µM | –
Cc1cc(NC(=O)CCC2CCCC2)no1 | inconclusive: 89.1 µM [inhibitor, single point] | –
CC(=NNC(=O)c1ccncc1)c1ccc(O)cc1O | – | inactive: -24.8%
Cc1ccnc(N/N=C/c2ccco2)n1 | inconclusive: 44.7 µM [inhibitor, partial curve] | –
O/N=C/c1cccn1-c1ccc(O)cc1 | inconclusive: 56.2 µM [inhibitor, partial curve] | –
O=C(NC1CCN(S(=O)(=O)c2ccccc2F)CC1)c1cccnc1 | inconclusive: 89.1 µM [inhibitor, single point] | –
CCOC(=O)CN1C(=O)COc2ccc(Cl)cc21 | inconclusive: 89.1 µM [inhibitor, partial curve] | –
CCO[C@@H]1OC(C(=O)N2CCN(Cc3ccc4c(c3)OCO4)CC2)=C[C@H](C2CCCCC2)[C@H]1CCCO | inconclusive: 56.2 µM [inhibitor, partial curve] | –
COc1ccc(CC(=O)NCc2nc(-c3ccccc3)no2)cc1 | – | inactive: -7.59%
COc1ccccc1C(=O)COC(=O)CCNS(=O)(=O)c1ccc(C)c(C)c1 | – | inactive: -13.1%
Nc1ccc2cc3[nH]c4cc(N)ccc4c3nc2c1 | inconclusive: 44.7 µM [inhibitor, partial curve] | –
Cc1ccc(NC2CCCN(C(=O)CSc3ccccn3)C2)cc1C (stereo unspecified) | inconclusive: 56.2 µM [inhibitor, partial curve] | –

Compound | Potency | activity change, negative = inhibition
CC1CCN(c2ccccc2NC(=O)c2cc([N+](=O)[O-])ccc2N2CCOCC2)CC1 | inconclusive: 28.2 µM [inhibitor, partial curve] | –
CC[n+]1c(/C=C/c2c[nH]c3ccccc23)ccc2cc(C)ccc21 | inconclusive: 12.6 µM [inhibitor, full curve, poor fit] | –
CC(=O)Nc1cccc(NC(=O)CSc2nn3c(=O)c(C)nnc3s2)c1 | inconclusive: 89.1 µM [inhibitor, partial curve] | –
COc1ccc(S(=O)(=O)N2CCCCCC2)cc1NC(=O)c1ccccc1S(C)(=O)=O | – | inactive: -7.53%
COC(=O)C1=C(C)N=C2SC(C#N)=C(N)N2C1c1ccc(OCc2ccccc2)cc1 (stereo unspecified) | inconclusive: 56.2 µM [inhibitor, partial curve] | –
CCN1CCCC1Cn1cnc2c([nH]c3ccc(Cl)cc32)c1=O (stereo unspecified) | – | inactive: 3.16%
C#CCOCCOCCOCCNc1nc(N2CCN(C(=O)C([C@@H](C)O)n3cc([C@@H](N)CCCCN)nn3)CC2)nc(N2CCN(C(=O)[C@H](CO)n3cc([C@@H](N)C(C)C)nn3)CC2)n1 (stereo partly specified) | active: 79.4 µM | –
Cc1ccccc1NC(=O)CSc1nc2c(c(=O)n(C)c(=O)n2C)n1C | – | inactive: -7.39%
CC(C)N(Cc1ccccc1)C(=O)CN1C(=O)COc2ccc(S(=O)(=O)N3CCCCCC3)cc21 | inconclusive: 28.2 µM [inhibitor, partial curve] | –
N#Cc1c(/N=C/c2cccs2)sc2c1CCC2 | inconclusive: 8.91 µM [inhibitor, partial curve] | –
COc1ccc(CCN2CC(C(=O)NCCc3cnn(C)c3)CCC2=O)cc1 (stereo unspecified) | active: 20 µM | –
CS(=O)(=O)Nc1cccc(-c2cc(F)c(S(=O)(=O)N3CCN(S(=O)(=O)c4ccc5c(c4)OCCO5)CC3)cc2F)c1 | inconclusive: 39.8 µM [inhibitor, single point] | –
CCCN1CN(Cc2ccccc2)CC2=C1CC(C)(C)CC2=O | inconclusive: 89.1 µM [inhibitor, single point] | –
CC(C)NS(=O)(=O)c1cc(F)ccc1CN1C(=O)c2cccnc2C1=O | inconclusive: 79.4 µM [inhibitor, partial curve] | –
Cc1ccc(-n2c(C)nc3oc4ccccc4c(=O)c3c2=O)cc1 | active: 50.1 µM | –
CCN(CC)CCNC(=O)c1nn(-c2ccc(Cl)cc2)c2c1CCc1cc(OC)ccc1-2 | inconclusive: 12.6 µM [inhibitor, full curve, poor fit] | –
CCN1C(=S)SC(=O)C1=C1C=C(C)N(CCO)C(C)=C1 | – | inactive: -31%
CCCN(C(=O)COC(=O)CSc1ccc([N+](=O)[O-])cc1)C1CCS(=O)(=O)C1 (stereo unspecified) | active: 56.2 µM | –
CNC(=S)N(CCc1c(C)[nH]c2ccc(C)cc12)Cc1ccco1 | inconclusive: 44.7 µM [inhibitor, partial curve] | –
CC(C)N(C(=O)Cn1c(=O)oc2ccccc21)c1ccccc1 | – | inactive: -6.46%
COC(=O)[C@H](CC(C)C)NC(=O)c1cc2c(cn1)[nH]c1ccccc12 | inconclusive: 39.8 µM [inhibitor, partial curve] | –
CNC(=O)C1CCN(Cc2cc3ccccc3n2Cc2cccc(C)c2)CC1 | – | inactive: -30%
Cc1cc2c(cc(C(=O)OCC(=O)NCc3cccs3)n2C(C)C)o1 | inconclusive: 50.1 µM [inhibitor, partial curve] | –
